Screen size: about 39,000 compounds; about 220 (0.56%) showed activity. This is one part of the list.
The molecules below were run on Escherichia coli K-12 BW25113 (assay: relative growth (OD600 normalised to plate interquartile mean) (fraction); higher = less growth inhibition, active = 0.2 or less). Settings: 50 µM; LB; incubation time: overnight (16-24 h).
`O=C(NCc1csnn1)c1csnn1` was tested, and the relative growth was inactive: 0.989.
`C[C@H]1CCCCO[C@@H](CN(C)C(=O)c2ccncc2)[C@@H](C)CN([C@@H](C)CO)C(=O)c2cc(NS(=O)(=O)c3cn(C)cn3)ccc2O1` was tested, and the relative growth was inactive: 1.
`Nc1nc(Cl)nc2c1ncn2[C@@H]1O[C@H](CO)[C@@H](O)[C@H]1O` was tested, and the relative growth was inactive: 0.986.
With `NNC(=O)CCCCCCC(=O)O` the relative growth was inactive: 0.992.
In the case of `Cc1noc(C)c1S(=O)(=O)Nc1ccc2c(c1)C(=O)N([C@@H](C)CO)C[C@H](C)[C@H](CN(C)Cc1ccc(Oc3ccccc3)cc1)O2`, the relative growth is reported as inactive: 1.03.
In the case of `C[C@H]1CN([C@@H](C)CO)C(=O)c2c(c3ccccc3n2C)-c2ccccc2CO[C@H]1CN(C)CC1CCCCC1`, the relative growth is reported as inactive: 1.01.
`C[C@@H]1CN([C@@H](C)CO)C(=O)c2cccc(NC(=O)Nc3ccccc3)c2O[C@@H]1CN(C)C(=O)Nc1ccc(C(F)(F)F)cc1` was tested, and the relative growth was inactive: 0.997.
For `C[C@H](CO)N1C[C@H](C)[C@@H](CN(C)C(=O)Nc2ccc3c(c2)OCO3)OCc2ccccc2-c2c(n(C)c3ccccc23)C1=O`, the relative growth was inactive: 0.972.
In the case of `COC(=O)[C@H]1CCNCCC1=O`, the relative growth is reported as inactive: 0.992.
In the case of `O=C(C[C@@H]1CC[C@H](NC(=O)CN2CCOCC2)[C@@H](CO)O1)NC1CCC1`, the relative growth is reported as inactive: 1.02.
`Cc1c(-c2c(-c3ccc(F)o3)sc3ncnc(O[C@H](Cc4ccccc4OCc4ccnn4CC(F)(F)F)C(=O)O)c23)ccc(OCCN2CCN(C)CC2)c1Cl` was tested, and the relative growth was inactive: 0.953.
With `COc1ccccc1CNC(=O)C[C@H]1C[C@H]2c3cc(NC(=O)Cc4ccncc4)ccc3O[C@H]2[C@H](CO)O1` the relative growth was inactive: 0.998.
`C[C@@H]1CCCCO[C@@H](CN(C)C(=O)Nc2ccc3c(c2)OCO3)[C@H](C)CN([C@H](C)CO)C(=O)c2cc(NC(=O)Nc3ccc(C(F)(F)F)cc3)ccc2O1` was tested, and the relative growth was inactive: 1.05.
For `CO[C@H]1CN(C)C(=O)c2cc(NS(=O)(=O)c3ccccc3)ccc2OC[C@H](C)N(C(=O)NC(C)C)C[C@H]1C`, the relative growth was inactive: 0.989.
With `C[C@H](CO)N1C[C@H](C)[C@@H](CN(C)Cc2ccc(C(=O)Nc3ccccc3N)cc2)Oc2ccc(NS(=O)(=O)c3cn(C)cn3)cc2CC1=O` the relative growth was inactive: 1.
For `C[C@@H]1CN([C@@H](C)CO)C(=O)c2cccc(NS(=O)(=O)c3cn(C)cn3)c2O[C@H]1CN(C)Cc1ccc(C(=O)Nc2ccccc2N)cc1`, the relative growth was inactive: 0.997.
With `CN1C(=O)c2cc(NC(=O)Cc3cccs3)ccc2OC[C@H]2O[C@H](CC(=O)NCCc3ccncc3)CC[C@@H]21` the relative growth was inactive: 0.943.
`C/C=C\C=C/[C@@H]1O[C@](O)([C@@H](CC)C(=O)NC/C=C\C=C(\C)[C@@H](OC)[C@@H](C)[C@H]2O[C@@H](\C=C/C=C\C=C(\C)C(=O)c3c(O)cc[nH]c3=O)[C@@H](O)[C@@H]2O)[C@@H](O)[C@H](O)C1(C)C` was tested, and the relative growth was inactive: 0.271.
In the case of `C[C@@H]1CN([C@@H](C)CO)S(=O)(=O)c2ccc(C#CCN(C)C)cc2O[C@@H]1CN(C)Cc1ccc(F)cc1`, the relative growth is reported as inactive: 1.03.
In the case of `COc1cccc(S(=O)(=O)N2C[C@H](O)COC[C@H]3O[C@@H](CC(=O)NCCCN4CCOCC4)CC[C@@H]32)c1`, the relative growth is reported as inactive: 0.999.
In the case of `O=C1O[C@H](c2ccccc2)[C@H](c2ccccc2)N2[C@H]1[C@@H](C(=O)Nc1nc3ccccc3s1)[C@]1(C(=O)Nc3ccccc31)[C@H]2c1ccc(OCCO)cc1`, the relative growth is reported as inactive: 1.01.
In the case of `CCS(=O)(=O)NCC[C@H]1CC[C@H](NC(=O)C2CCOCC2)[C@@H](CO)O1`, the relative growth is reported as inactive: 1.
With `COc1cccc(S(=O)(=O)N(C)C[C@@H]2Oc3cc(C#CCN(C)C)ccc3S(=O)(=O)N([C@H](C)CO)C[C@@H]2C)c1` the relative growth was inactive: 1.03.
`C=c1cc(C)cc(C)c1=C1NN=C(N)S1` was tested, and the relative growth was inactive: 0.917.
For `CC(C)NC(=O)Nc1ccc2c(c1)CC(=O)N([C@@H](C)CO)C[C@@H](C)[C@H](CN(C)Cc1ccc3c(c1)OCO3)O2`, the relative growth was inactive: 0.979.
In the case of `COC(=O)C[C@@H]1CC[C@@H]2[C@H](COC[C@H](O)CN2S(=O)(=O)c2ccccc2C)O1`, the relative growth is reported as inactive: 0.994.
`C[C@@H]1CN([C@@H](C)CO)C(=O)Cc2cc(NS(=O)(=O)c3cn(C)cn3)ccc2O[C@@H]1CN(C)Cc1ccc(C(=O)O)cc1` was tested, and the relative growth was inactive: 1.
`C[C@H](C(=O)NC1CCCC1)N(C(=O)Cn1nnc(-c2ccc3c(c2)OC(F)(F)O3)n1)C1CCCCC1` was tested, and the relative growth was inactive: 1.03.
For `COc1cccc(S(=O)(=O)N(C)C[C@@H]2Oc3ncc(C#CCC(C)C)cc3C(=O)N([C@@H](C)CO)C[C@@H]2C)c1`, the relative growth was inactive: 1.01.
For `COc1cccc(CNC(=O)C[C@H]2C=C[C@@H](NC(=O)C3CCOCC3)[C@@H](CO)O2)c1`, the relative growth was inactive: 0.999.
`COc1ccc(S(=O)(=O)Nc2ccc3c(c2)C(=O)N([C@@H](C)CO)C[C@@H](C)[C@@H](CN(C)C(=O)Nc2c(C)noc2C)OCCCC[C@H](C)O3)cc1` was tested, and the relative growth was inactive: 1.
In the case of `C[C@@H]1CN([C@H](C)CO)C(=O)c2cccc(NC(=O)c3ccncc3)c2O[C@H]1CN(C)Cc1ccc2c(c1)OCO2`, the relative growth is reported as inactive: 0.992.
With `C[C@H]1CN([C@@H](C)CO)C(=O)CCCn2nncc2CO[C@H]1CN(C)C(=O)C1CC1` the relative growth was inactive: 0.936.
With `O=C(C[C@H]1CC[C@@H]2[C@H](COC[C@@H](O)CN2S(=O)(=O)c2ccc(Cl)cc2)O1)NCc1ccncn1` the relative growth was inactive: 1.
In the case of `C[C@@H]1CN([C@H](C)CO)S(=O)(=O)c2ccc(C#CC3CC3)cc2O[C@@H]1CN(C)Cc1ccc(F)cc1`, the relative growth is reported as inactive: 0.998.
For `C[C@H]1CN([C@@H](C)CO)C(=O)Cc2cc(NC(=O)CCN3CCOCC3)ccc2O[C@H]1CN(C)S(=O)(=O)c1cn(C)cn1`, the relative growth was inactive: 0.981.
With `C[C@H](CO)N1C[C@H](C)[C@H](CN(C)C(=O)c2cccc(F)c2)Oc2cc(-c3cncnc3)ccc2S1(=O)=O` the relative growth was inactive: 1.02.
`Cc1noc(C)c1NC(=O)Nc1ccc2c(c1)C(=O)N([C@H](C)CO)C[C@H](C)[C@@H](CN(C)Cc1ccc(-c3ccccc3)cc1)O2` was tested, and the relative growth was inactive: 0.981.
`C[C@@H]1CN([C@@H](C)CO)C(=O)c2cc(NC(=O)Nc3ccc(F)cc3)ccc2O[C@@H](C)CCCCO[C@H]1CN(C)C(=O)C1CCCCC1` was tested, and the relative growth was inactive: 0.992.
With `C[C@H](CO)N1C[C@H](C)[C@@H](CN(C)Cc2ccc(C(=O)Nc3ccccc3N)cc2)Oc2ccc(NC(=O)Nc3ccc(F)cc3)cc2CC1=O` the relative growth was inactive: 1.
With `CCS(=O)(=O)N1CC[C@]2(CC1)CN(Cc1ccc3c(c1)OCO3)[C@@H](CO)c1c2c2ccc(cc2n1C)OC` the relative growth was inactive: 1.03.
In the case of `C[C@@H]1CN([C@H](C)CO)C(=O)Cc2cc(NS(C)(=O)=O)ccc2O[C@@H]1CN(C)C(=O)Nc1ccc(C(F)(F)F)cc1`, the relative growth is reported as inactive: 0.998.
For `COc1cccc(-c2ccc3c(c2)O[C@H](CN(C)C(=O)C2CC2)[C@@H](C)CN([C@@H](C)CO)S3(=O)=O)c1`, the relative growth was inactive: 0.988.
In the case of `C[C@H](CO)N1C[C@H](C)[C@H](CN(C)C(=O)Nc2ccc(N3CCN(C)CC3)cc2)OCc2cn(nn2)CCCC1=O`, the relative growth is reported as inactive: 1.02.
In the case of `COCCOC(=O)N1C(=O)[C@@]2(c3cc(C#Cc4ccc(OC)cc4)ccc31)[C@H](c1ccc(O)cc1)N1[C@H](c3ccccc3)[C@H](c3ccccc3)OC(=O)[C@H]1[C@@H]2C(=O)N1CCc2cc(OC)c(OC)cc2C1`, the relative growth is reported as inactive: 1.02.
With `COc1ccccc1-c1ccc2c(c1)O[C@@H](CN(C)CC1CCOCC1)[C@H](C)CN([C@H](C)CO)S2(=O)=O` the relative growth was inactive: 1.02.
`C[C@@H]1CN([C@H](C)CO)C(=O)c2cccc(NS(=O)(=O)c3ccccc3)c2O[C@@H]1CN(C)Cc1ccc(Oc2ccccc2)cc1` was tested, and the relative growth was inactive: 1.01.
For `C[C@@H]1CN([C@H](C)CO)C(=O)c2cc(NC(=O)C3CCCCC3)ccc2O[C@@H](C)CCCCO[C@@H]1CN(C)C(=O)Nc1ccc2c(c1)OCO2`, the relative growth was inactive: 0.954.
`COc1ccc(NC(=O)Nc2ccc3c(c2)[C@@H]2C[C@H](CC(=O)NCc4ccccn4)O[C@@H](CO)[C@@H]2O3)cc1` was tested, and the relative growth was inactive: 1.01.
`CCCN(C)C[C@@H]1OCCCC[C@@H](C)Oc2ccc(NC(=O)Nc3ccc(C(F)(F)F)cc3)cc2C(=O)N([C@H](C)CO)C[C@H]1C` was tested, and the relative growth was inactive: 1.01.
For `CC(C)NC(=O)N(C)C[C@@H]1Oc2c(NC(=O)NC3CCCCC3)cccc2C(=O)N([C@@H](C)CO)C[C@@H]1C`, the relative growth was inactive: 0.988.
`COCCOC(=O)N1C(=O)[C@@]2(c3cc(C#Cc4ccc(OC)cc4)ccc31)[C@H](C(=O)NC[C@H](O)c1ccccc1)[C@H]1C(=O)O[C@H](c3ccccc3)[C@H](c3ccccc3)N1[C@@H]2c1ccc(OCCO)cc1` was tested, and the relative growth was inactive: 1.05.
For `Cc1c(C(=O)O)sc2[nH]cnc(=O)c12`, the relative growth was inactive: 0.996.
For `Cc1ccc(S(=O)(=O)N(C)C[C@@H]2Oc3ccc(NS(=O)(=O)c4cn(C)cn4)cc3C(=O)N([C@H](C)CO)C[C@@H]2C)cc1`, the relative growth was inactive: 1.02.
In the case of `C[C@H](CO)N1C[C@H](C)[C@@H](CN(C)Cc2ccc(-c3ccccc3)cc2)Oc2ccc(NC(=O)Nc3ccc(F)cc3)cc2CC1=O`, the relative growth is reported as inactive: 0.994.
`CO[C@H]1CN(C)C(=O)c2cc(NS(=O)(=O)CC(F)(F)F)ccc2OC[C@@H](C)N(C(=O)c2ccc3c(c2)OCO3)C[C@@H]1C` was tested, and the relative growth was inactive: 1.01.
In the case of `C[C@@H]1CCCCO[C@H](CN(C)Cc2ccc(C(F)(F)F)cc2)[C@@H](C)CN([C@H](C)CO)C(=O)c2cc(NC(=O)Cc3ccccc3)ccc2O1`, the relative growth is reported as inactive: 1.05.

— the supplement of paper PMC9446081
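Also: static incubation at 37 °C against the wild-type strain, values averaged over two biological replicates.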
